Test results reported in the supplement of paper PMC8728848.
The other results are listed elsewhere or left out.

Assays:
Assay in all cases: glycan array binding signal (z-score within array); higher = stronger binding
Conditions in all cases: glycan notation: IUPAC condensed, linker removed; mutation: E227G
[1] = molecular target: Fuc(a1-2)[GalNAc(b1-3)]Gal
Summary of the method: (§1)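 Columns mapping to the same glycan were averaged after glycan names were converted to IUPAC-condensed notation. The data come from 3228 arrays in the Consortium for Functional Glycomics database, limited to those with an available protein sequence. Binding is reported as a within-array Z-score averaged across arrays of one protein sequence and across linkers.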

Fuc(a1-3)GlcNAc = molecular target: Fuc(a1-3)GlcNAc
Summary of the method: as §1

[2] = molecular target: Fuc(a1-3)[Gal(b1-4)]Glc6S
Summary of the method: as §1

[3] = molecular target: Fuc(a1-3)[Gal(b1-4)]GlcNAc
Summary of the method: as §1

[4] = molecular target: Fuc(a1-3)[Gal(b1-4)]GlcNAc(b1-2)Man
Summary of the method: as §1

[5] = molecular target: Fuc(a1-3)[Gal(b1-4)]GlcNAc(b1-2)Man(a1-3)[Fuc(a1-3)[Gal(b1-4)]GlcNAc(b1-2)Man(a1-6)]Man(b1-4)GlcNAc(b1-4)GlcNAc
Summary of the method: as §1

[6] = molecular target: Fuc(a1-3)[Gal(b1-4)]GlcNAc(b1-2)Man(a1-3)[Fuc(a1-3)[Gal(b1-4)]GlcNAc(b1-2)Man(a1-6)]Man(b1-4)GlcNAc(b1-4)[Fuc(a1-6)]GlcNAc
Summary of the method: as §1

[7] = molecular target: Fuc(a1-3)[Gal(b1-4)]GlcNAc(b1-3)Gal(b1-3)[Fuc(a1-4)]GlcNAc
Summary of the method: as §1

[8] = molecular target: Fuc(a1-3)[Gal(b1-4)]GlcNAc(b1-3)Gal(b1-4)[Fuc(a1-3)]GlcNAc
Summary of the method: as §1

[9] = molecular target: Fuc(a1-3)[Gal(b1-4)]GlcNAc(b1-3)Gal(b1-4)[Fuc(a1-3)]GlcNAc(b1-3)Gal(b1-4)[Fuc(a1-3)]GlcNAc
Summary of the method: as §1

[10] = molecular target: Fuc(a1-3)[Gal(b1-4)]GlcNAc(b1-3)GalNAc
Summary of the method: as §1

[11] = molecular target: Fuc(a1-3)[Gal(b1-4)]GlcNAc(b1-6)GalNAc
Summary of the method: as §1

[12] = molecular target: Fuc(a1-3)[Gal(b1-4)]GlcNAc(b1-6)[Gal(b1-3)GlcNAc(b1-3)]Gal(b1-4)Glc
Summary of the method: as §1

[13] = molecular target: Fuc(a1-3)[Gal(b1-4)]GlcNAc6S
Summary of the method: as §1

[14] = molecular target: Fuc(a1-3)[Gal3S(b1-4)]Glc
Summary of the method: as §1

[15] = molecular target: Fuc(a1-3)[Gal3S(b1-4)]GlcNAc
Summary of the method: as §1

[16] = molecular target: Fuc(a1-3)[Gal3S(b1-4)]GlcNAc6S
Summary of the method: as §1

[17] = molecular target: Fuc(a1-3)[GalNAc(b1-4)]GlcNAc
Summary of the method: as §1

[18] = molecular target: Fuc(a1-3)[GalNAc(b1-4)]GlcNAc6S
Summary of the method: as §1

Fuc(a1-4)GlcNAc = molecular target: Fuc(a1-4)GlcNAc
Summary of the method: as §1

Fuc(b1-3)GlcNAc = molecular target: Fuc(b1-3)GlcNAc
Summary of the method: as §1

Gal(a1-2)Gal = molecular target: Gal(a1-2)Gal
Summary of the method: as §1

Gal(a1-3)Gal = molecular target: Gal(a1-3)Gal
Summary of the method: as §1

Gal(a1-3)Gal(b1-3)GlcNAc = molecular target: Gal(a1-3)Gal(b1-3)GlcNAc
Summary of the method: as §1

[19] = molecular target: Gal(a1-3)Gal(b1-3)GlcNAc(b1-2)Man
Summary of the method: as §1

[20] = molecular target: Gal(a1-3)Gal(b1-3)GlcNAc(b1-2)Man(a1-3)[Gal(a1-3)Gal(b1-3)GlcNAc(b1-2)Man(a1-6)]Man(b1-4)GlcNAc(b1-4)GlcNAc
Summary of the method: as §1

[21] = molecular target: Gal(a1-3)Gal(b1-3)GlcNAc(b1-3)GalNAc
Summary of the method: as §1

[22] = molecular target: Gal(a1-3)Gal(b1-3)GlcNAc(b1-6)GalNAc
Summary of the method: as §1

[23] = molecular target: Gal(a1-3)Gal(b1-3)[Fuc(a1-4)]GlcNAc(b1-2)Man(a1-3)[Gal(a1-3)Gal(b1-3)[Fuc(a1-4)]GlcNAc(b1-2)Man(a1-6)]Man(b1-4)GlcNAc(b1-4)GlcNAc
Summary of the method: as §1

Gal(a1-3)Gal(b1-4)Glc = molecular target: Gal(a1-3)Gal(b1-4)Glc
Summary of the method: as §1

B1: Epa1-NP-mutant-E227G (Candida glabrata), Q6VBJ0 (protein)
chain: MILNPALFLNKCVCIYTTLILLLLTNGGYATSSNDISLASKDPTTFPLGCSPDITTPKKGLSMELYSYDFRKKGSYPCWDAAYLDPNYPRTGYKSHRLLAKVDGVTGNINFYYHATKGCTPQLGHLPASYNYPKPLTMTNFTMLLYGYFRPKVTGFHTFTISADDLLFVNFGAGNAFDCCRRDSSADHFGNYQAYAIWGSKTAKDELTVHLDAGVYYPIRLFYNNRGYDGALSFTFKTESNENTVSDFSEYFFSLDDTEEGCPGLISYDSSCASVKTSKIIGIDYHTETPNENLVPITKTIYHLGIPCTGTTTTPLCGSGFYDPLANKCVTINTSSTSSVTKTTSHTTSKEVSFHSSISSQKTLIPKSIPSPYGPIKSQSIPTEMETSSEISSSEYAFSDVISTPSHSPYTKKHSSLNSSSYTSTVIHSLTSYSISQGIFSTSLSEQNITSKSSTDKFSTATSMSNNITQSSIIISQFSTNNENYTTTSMHTSSDKISTETLNNSISTTTSILFSNSSTILKNNTTIISSDKDTHYHPVNPTIVCSTNKTEIICASITQPSISNSNNHWSSSVLKFNSTTVRSTLPSSAGSNETSINVPFSSSTESNTSTSSTSTSNSKMVRSTLPSSAGSNETSISVPFSSSTESNTSTSSTSTSNSKMVRSTLPSSAGSNETSINVPFSSSTESNTSTSSTSTSNSKTVRSTPFSSAGIIMTSLSQRNNKSASSYASSNSKCYNTADSCRKVHSTPSYLLTSSYTSEGVDYDCSLVSTKLKINDTNCVNNKHTTKSCLKTSVTTTIPTLEIKTARKSSSNTIGLHSYPTSSPNKSISSAPIIGYISSFKTIKTASPSYQTSDLTTITTITSLNNPGSTAVENTHESNDKSRKTSSNDISSKHSVIKETKDAVESSNKSHQTNTLKCSSIIIASSSHNSYESLGGTTLTLTLSKVYSPQNNDTLPFLEISEVNPSRTVLPESSKMMQYLTSTEERNKTARNTIATNIVSISTFHFEGEGNAIRMGYTQLLLMLIGIIVMNIGT
Question: With B1 as the binder, how does the “glycan array binding signal (z-score)” value [1] read?
Answer: -0.22

Question: What about the “glycan array binding signal (z-score)” value (Fuc(a1-3)GlcNAc) of the same binder?
Answer: -0.077

Question: And the “glycan array binding signal (z-score)” value [2]?
Answer: -0.073

Question: What about the “glycan array binding signal (z-score)” value [3] of the same binder?
Answer: -0.217

Question: And the “glycan array binding signal (z-score)” value [4]?
Answer: -0.202

Question: What about the “glycan array binding signal (z-score)” value [5] of the same binder?
Answer: -0.137

Question: What about the “glycan array binding signal (z-score)” value [6] of the same binder?
Answer: -0.005

Question: And the “glycan array binding signal (z-score)” value [7]?
Answer: -0.062

Question: And the “glycan array binding signal (z-score)” value [8]?
Answer: -0.147

Question: What about the “glycan array binding signal (z-score)” value [9] of the same binder?
Answer: -0.246

Question: And the “glycan array binding signal (z-score)” value [10]?
Answer: -0.025

Question: And the “glycan array binding signal (z-score)” value [11]?
Answer: -0.301

Question: What about the “glycan array binding signal (z-score)” value [12] of the same binder?
Answer: -0.126

Question: What about the “glycan array binding signal (z-score)” value [13] of the same binder?
Answer: 0.185

Question: What about the “glycan array binding signal (z-score)” value [14] of the same binder?
Answer: -0.16

Question: What about the “glycan array binding signal (z-score)” value [15] of the same binder?
Answer: -0.159

Question: What about the “glycan array binding signal (z-score)” value [16] of the same binder?
Answer: 0.024

Question: What about the “glycan array binding signal (z-score)” value [17] of the same binder?
Answer: -0.131

Question: And the “glycan array binding signal (z-score)” value [18]?
Answer: -0.197

Question: What about the “glycan array binding signal (z-score)” value (Fuc(a1-4)GlcNAc) of the same binder?
Answer: -0.279

Question: What about the “glycan array binding signal (z-score)” value (Fuc(b1-3)GlcNAc) of the same binder?
Answer: -0.119

Question: And the “glycan array binding signal (z-score)” value (Gal(a1-2)Gal)?
Answer: -0.274

Question: What about the “glycan array binding signal (z-score)” value (Gal(a1-3)Gal) of the same binder?
Answer: -0.054

Question: And the “glycan array binding signal (z-score)” value (Gal(a1-3)Gal(b1-3)GlcNAc)?
Answer: -0.236

Question: And the “glycan array binding signal (z-score)” value [19]?
Answer: -0.184

Question: And the “glycan array binding signal (z-score)” value [20]?
Answer: 0.258

Question: What about the “glycan array binding signal (z-score)” value [21] of the same binder?
Answer: -0.05

Question: What about the “glycan array binding signal (z-score)” value [22] of the same binder?
Answer: -0.046

Question: What about the “glycan array binding signal (z-score)” value [23] of the same binder?
Answer: 0.128

Question: And the “glycan array binding signal (z-score)” value (Gal(a1-3)Gal(b1-4)Glc)?
Answer: -0.127
